This note sets out measurements from a collection of fitness landscapes (doi:10.1126/science.1257360).

B1: PhoQ; a variant is named by its letters at X, in order, P23837 (parent)
chain: MKKLLRLFFPLSLRVRFLLATAAVVLVLSLAYGMVALIGYSVSFDKTTFRLLRGESNLFYTLAKWENNKLHVELPENIDKQSPTMTLIYDENGQLLWAQRDVPWLMKMIQPDWLKSNGFHEIEADVNDTSLLLSGDHSIQQQLQEVREDDDDAEMTHSVAVNVYPATSRMPKLTIVVVDTIPVELKSSYMVWSWFIYVLSANLLLVIPLLWVAAWWSLRPIEALAKEVRELEEHNRELLNPATTRELTSLVRNLNRLLKSERERYDKYRTTLTDLTHSLKTPLXXLQXXLRSLRSEKMSVSDAEPVMLEQISRISQQIGYYLHRASMRGGTLLSRELHPVAPLLDNLTSALNKVYQRKGVNISLDISPEISFVGEQNDFVEVMGNVLDNACKYCLEFVEISARQTDEHLYIVVEDDGPGIPLSKREVIFDRGQRVDTLRPGQGVGLAVAREITEQYEGKIVAGESMLGGARMEVIFGRQHSAPKDE

Some of the results follow.

Variants of B1 are the subject of this test. As to the kind of experiment: enrichment ratio after two sorts for PhoP signalling (ratio (wild type AVST 3.29)); higher = more functional. The following applies: with PhoP (E. coli).
ATVH: the enrichment ratio turned out to be 10.8. Take DSQA: the enrichment ratio is no more than 0.25. Then GMRG, with no more than 0.25; and LDGI, with no more than 0.25; and ETKL, with no more than 0.25. Turning to FRIV, the enrichment ratio was no more than 0.25. With TTKI, the enrichment ratio is no more than 0.25. For MVKF, the enrichment ratio was no more than 0.25.

With IDVI, the enrichment ratio was no more than 0.25. As to LQGY, the enrichment ratio was no more than 0.25. With DGEY, the enrichment ratio was no more than 0.25. For IYNF, the enrichment ratio was no more than 0.25. Consider GRYD, for which the enrichment ratio is no more than 0.25. As to WMTL, the enrichment ratio was no more than 0.25. For the variant RDMW, the enrichment ratio is no more than 0.25.

On to HRGM, for which the enrichment ratio is no more than 0.25. With VSID, the enrichment ratio was no more than 0.25. Then INAN, with no more than 0.25; and QMFW, with no more than 0.25. With KAQS, the enrichment ratio is no more than 0.25.

Turning to ELRC, the enrichment ratio is no more than 0.25.

As to NWKS, the enrichment ratio is no more than 0.25. For the variant NHWP, the enrichment ratio was no more than 0.25. In the case of NYEQ, the enrichment ratio is no more than 0.25.

For the variant SSEF, the enrichment ratio stood at 0.399.

As to DTEL, the enrichment ratio is no more than 0.25.

For the variant ADHC, the enrichment ratio is no more than 0.25. Consider NQQG, for which the enrichment ratio was no more than 0.25. With KFEQ, the enrichment ratio is no more than 0.25. With MLPN, the enrichment ratio was no more than 0.25. As for EHRS, the enrichment ratio was no more than 0.25.

Take FEWY: the enrichment ratio was no more than 0.25. For the variant RHVA, the enrichment ratio is no more than 0.25. As for SMFG, the enrichment ratio came to 0.583. Regarding YIPS, the enrichment ratio was no more than 0.25. For RFLM, the enrichment ratio was no more than 0.25. Take WYHC: the enrichment ratio was no more than 0.25. As to VYCT, the enrichment ratio was no more than 0.25. Turning to ADDN, the enrichment ratio is no more than 0.25. As for LGAP, the enrichment ratio is no more than 0.25. With DDTP, the enrichment ratio was no more than 0.25. On to KDFC, for which the enrichment ratio is no more than 0.25.

For the variant QAIP, the enrichment ratio is no more than 0.25. Turning to NMAE, the enrichment ratio is no more than 0.25. In the case of PLAS, the enrichment ratio was no more than 0.25. Then KMLT, with no more than 0.25; and QKGR, with no more than 0.25; and QTAK, with no more than 0.25.

For QCSY, the enrichment ratio was no more than 0.25. With ISCN, the enrichment ratio is no more than 0.25. For LNMA, the enrichment ratio is no more than 0.25.

In the case of SWTQ, the enrichment ratio was no more than 0.25. For the variant NYWW, the enrichment ratio was no more than 0.25. The value for ECLF was no more than 0.25; that for VHYT was no more than 0.25. Then VEAK, with no more than 0.25; and KHYE, with no more than 0.25.

Turning to LGIC, the enrichment ratio is no more than 0.25. Then NFIA, with no more than 0.25; and YKLC, with no more than 0.25. The value for RPRK was no more than 0.25; that for NGLF was no more than 0.25. Then SAFV, with no more than 0.25. On to WPGG, for which the enrichment ratio was found to be 0.855. Turning to YVSH, the enrichment ratio was no more than 0.25. Then ADDS, with no more than 0.25.

Consider KCLC, for which the enrichment ratio is no more than 0.25.

For RYHN, the enrichment ratio is no more than 0.25. Then NKCA, with no more than 0.25. As to VWWL, the enrichment ratio is no more than 0.25. MVAH: the enrichment ratio turned out to be 12.3. The value for YALL was 10.6; that for VPWT was no more than 0.25. The value for LNGA was no more than 0.25.

With FTFS, the enrichment ratio was no more than 0.25. Take NMRD: the enrichment ratio was no more than 0.25.

Turning to QVRP, the enrichment ratio is no more than 0.25. With KYTS, the enrichment ratio was no more than 0.25. The value for WRSI was no more than 0.25; that for IKHI was no more than 0.25; that for SMPF was no more than 0.25. Take DGWL: the enrichment ratio is no more than 0.25. In the case of TVPG, the enrichment ratio is no more than 0.25. The value for NKVM was no more than 0.25; that for SDEP was no more than 0.25. AAPE: the enrichment ratio was no more than 0.25.

MWLP: the enrichment ratio is no more than 0.25.

For YSIM, the enrichment ratio stood at 9.6. On to FTVC, for which the enrichment ratio is no more than 0.25. The value for DAHD was no more than 0.25; that for GMWH was no more than 0.25.

For the variant DWNL, the enrichment ratio is no more than 0.25. For the variant IKQW, the enrichment ratio was no more than 0.25. Turning to NTKW, the enrichment ratio was no more than 0.25. On to VVWE, for which the enrichment ratio is no more than 0.25. With KNTI, the enrichment ratio is no more than 0.25. For PMIC, the enrichment ratio was no more than 0.25. Regarding LHIY, the enrichment ratio is no more than 0.25. The value for IVMD was no more than 0.25; that for QVGI was no more than 0.25; that for HKIC was no more than 0.25. PYEL: the enrichment ratio is no more than 0.25.

IVIA: the enrichment ratio is no more than 0.25.

For the variant TLQQ, the enrichment ratio is 10.1. For the variant PPMF, the enrichment ratio was no more than 0.25. Then SETF, with 9.36; and TKMP, with no more than 0.25; and QSHV, with 11.3.

For IWIP, the enrichment ratio was no more than 0.25. Consider VHAC, for which the enrichment ratio is no more than 0.25.

For TPKL, the enrichment ratio is no more than 0.25. The value for FEVH was no more than 0.25; that for NSPS was no more than 0.25; that for YYVM was no more than 0.25. Then PWFK, with no more than 0.25. ILRV: the enrichment ratio is no more than 0.25. Take GRFA: the enrichment ratio was no more than 0.25. The value for WCPL was no more than 0.25; that for FSGD was no more than 0.25.

Turning to GPSD, the enrichment ratio was no more than 0.25.

As to HHGR, the enrichment ratio was no more than 0.25. Consider NPSS, for which the enrichment ratio was no more than 0.25. Then SCTW, with 9.5. In the case of MQMW, the enrichment ratio was no more than 0.25. Regarding MNHN, the enrichment ratio was no more than 0.25. Then AFTK, with no more than 0.25. As for RCTW, the enrichment ratio was no more than 0.25. For ADAL, the enrichment ratio was no more than 0.25. The value for EGCK was no more than 0.25. Regarding QGAD, the enrichment ratio was no more than 0.25. The value for WTRL was no more than 0.25. Then GYPV, with no more than 0.25; and ADYK, with no more than 0.25; and HATM, with no more than 0.25. Then TIRD, with no more than 0.25; and ACFW, with no more than 0.25; and MPNG, with no more than 0.25. Regarding FEVG, the enrichment ratio came out at 2.78. The value for EECW was no more than 0.25; that for EAEE was no more than 0.25; that for KPLQ was no more than 0.25. For the variant VHTS, the enrichment ratio was no more than 0.25. Then AALN, with 8.23; and SYMI, with 0.48; and TDPT, with no more than 0.25. Then IAIS, with no more than 0.25; and RVRL, with no more than 0.25. For the variant QMCL, the enrichment ratio is no more than 0.25. Then DFNV, with no more than 0.25; and ASAH, with 6.11.

In the case of EKYS, the enrichment ratio is no more than 0.25. Consider PPPK, for which the enrichment ratio was no more than 0.25. Then YFIF, with no more than 0.25.
